Survival data for 25 compounds are collected here from PubChem BioAssay AID463173 (ICCB-Longwood Screening Facility, Harvard Medical School, 2010).

Hit rate of the full screen: of about 52,000 compounds, about 4,300 (8.3%) were called active. No stated cut-off is given here; in the data, active means survival mostly below about 52% (no sharp cut-off); inactive means mostly above about 56%. This is one part of the list.

The test system of the assay is DeltatarO mutant. Put plainly: growth inhibition of S. aureus wild type versus tarO mutant, primary screen, teichoic acid synthesis inhibitors, RN4220, OD600 (AID 463173). The following applies: OD600, 18 h, stronger effect = lower value, screened at 18.75 µg/mL (by protocol).
Regarding `Cc1c(CC(=O)NCc2ccccc2)c(=O)oc2c(C)c(O)ccc12`, the survival was inactive: 66%. The figure for `CC(=O)Nc1nonc1-c1nnc(SCc2ccc(F)cc2)n1C` is inactive: 44%; for `COc1ccc(C(C#N)N2N=C(C)CC2c2ccccc2)cc1OC` (stereo not given) it is inactive: 108%. As for `CCCCSc1nnc2n(-c3cccc(C)c3)c(=O)c3c4c(sc3n12)CCCC4`, the survival is active: 1%. `Fc1ccccc1Oc1ncnc2c1oc1ccccc12`: the survival is active: 37%. The figure for `CCOC(=O)C1CCN(C(=O)CSc2n[nH]c(-c3ccccc3)n2)CC1` is inactive: 97%. The figure for `Cc1cccc(OCc2nc(C#N)c(NCc3ccccc3Cl)o2)c1` is inactive: 53%; for `Cc1ccc2nc(COc3ccc(NC(=O)COc4ccccc4F)cc3)cc(=O)n2c1` it is inactive: 118%; for `COc1ccc(NC(=O)CSc2nc3ccccc3[nH]2)cc1` it is inactive: 70%. The figure for `COc1ccc(CC(=O)OC2CCCN(C)C2)cc1` (stereo not given) is inactive: 58%. With `O=C(COc1ccccc1Cl)Nc1nc2c(s1)CCCC2`, the survival was inactive: 55%. For `CCOc1cc(C2C(C(=O)OC)=C(C)NC3=C2C(=O)c2ccccc23)c(Br)cc1OC` (stereo not given), the survival is inactive: 52%.

`CCOCCCNC(=O)Cn1nc(C)n2c(cc3cc(C)ccc32)c1=O`: the survival is inactive: 105%. The figure for `CCc1ccc(CNC(=O)c2ccc(CSc3nc4ccncc4n3Cc3ccc(OC)cc3)cc2)cc1` is inactive: 71%; for `COc1ccc(N2CCN(C(=O)Cc3coc4ccc(C)cc34)CC2)cc1` it is inactive: 105%; for `O=S(=O)(Nc1cccc(Cl)c1)c1ccc2[nH]c3c(c2c1)CCCCCC3` it is inactive: 109%. Under `CC(C)Oc1cccc(NC(=O)C2CCN(S(=O)(=O)Cc3ccccc3)CC2)c1` stands inactive: 67%; under `COc1ccc(C)cc1NC(=O)C(=O)NCCc1sc(-c2ccc(Cl)cc2)nc1C`, inactive: 78%; under `CCOC(=O)c1c(NC(C)=O)c2c3c(sc2n1Cc1nc(-c2ccc(Cl)cc2)oc1C)CCCC3`, inactive: 82%. Turning to `CC(=O)c1cccc(NC(=O)CCS(=O)(=O)c2cc3c(cc2C)NC(=O)CO3)c1`, the survival is inactive: 85%.

Consider `CCc1noc(-c2ccc(NC(C)c3ccccc3)c([N+](=O)[O-])c2)n1` (stereo not given), for which the survival was inactive: 81%.

Take `CCN(CC)C(=O)C1=C(C)Nc2nc3ccccc3n2C1c1ccc(Br)cc1` (stereo not given): the survival is inactive: 66%.

With `O=C(Cn1c(=O)n(Cc2ccco2)c(=O)c2ccc(C(=O)NC3CCCC3)cc21)Nc1ccc(F)cc1`, the survival is inactive: 90%. The figure for `COc1ccc(-n2nc(C(=O)NCCc3ccc(Cl)cc3)c3c4ccccc4n(C)c3c2=O)cc1Cl` is inactive: 96%; for `Cc1cc(C)n(CC(=O)Nc2ccc(F)c(F)c2)c(=O)c1C#N` it is inactive: 100%.
